Laboratory results from PubChem BioAssay AID1346428 (National Center for Advancing Translational Sciences (NCATS), 2018).
Out of some 48,000 compounds screened, about 1,200 (2.5%) were called active. Another 2% or so got no clear call; they are omitted.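 Rule for the calls: active = activation of at least 60% and not above a set upper limit (about 1 call in 100 departs from these limits); inconclusive = activation of 40% to 60%, or above that upper limit; inactive = activation under 40%.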 The list shows a part of the results.

Molecular target: Probable G-protein coupled receptor 32 (Homo sapiens) (UniProt O75388)
Sequence of UniProt O75388 (O75388 whole entry, looked up): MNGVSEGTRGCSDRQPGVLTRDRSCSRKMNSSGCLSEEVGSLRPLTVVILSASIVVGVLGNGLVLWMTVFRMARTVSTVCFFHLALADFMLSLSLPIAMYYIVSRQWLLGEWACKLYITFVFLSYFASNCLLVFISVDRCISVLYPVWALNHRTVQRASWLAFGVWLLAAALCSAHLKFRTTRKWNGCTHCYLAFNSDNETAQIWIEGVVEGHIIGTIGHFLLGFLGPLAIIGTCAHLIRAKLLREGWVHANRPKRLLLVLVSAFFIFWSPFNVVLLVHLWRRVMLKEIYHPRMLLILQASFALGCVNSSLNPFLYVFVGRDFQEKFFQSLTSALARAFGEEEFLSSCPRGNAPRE
Test: qHTS for Agonists of Human Resolvin D1 Receptor DRV1; note: 0% is about no effect
Conditions: CHO-K1 GPR32 beta-arrestin PathHunter luminescence, 90 min; at 76.9 µM; stronger effect = higher value; zero percent set by DMSO-only wells
In short: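 Readings come from a cell-based beta-arrestin complementation format: CHO-K1 GPR32 stable cells (2,500/well) treated 90 min with compounds, then beta-Gal substrate added for 1 h before chemiluminescence imaging.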

activation, inactive:
Cc1ccc(-n2ncc3c(=O)n(Cc4ccccc4C)cnc32)cc1C -2.7%
CCc1ccc(NC(=O)c2ccc(F)c(S(=O)(=O)NCCc3ccc(OC)c(OC)c3)c2)cc1 27.3%
CCCN(Cc1cccs1)C(=O)Nc1ccc(F)c(Cl)c1 -8.22%
COc1cc(Cl)c(NC(=O)C(NS(=O)(=O)c2cccs2)C(C)C)c(OC)c1 (stereo not drawn) -11.4%
COc1ccc(OC)c(Nc2c3c(nc4ccccc24)CCC3)c1 -9.92%
COc1cccc(Nc2sc(C(=O)c3ccc(Cl)cc3)c(N)c2C(=O)NCCc2ccc(OC)c(OC)c2)c1 -99.5%
CS(=O)(=O)N1CCc2cc(C(=O)Nc3ccc(S(N)(=O)=O)cc3)ccc21 -9.85%
CCCSc1nnc2n(-c3cccc(C)c3)c(=O)c3c4c(sc3n12)CCCC4 -6.34%
Cc1ccc(C)c(NC(=O)Cn2c(=O)n(Cc3ccc4c(c3)OCO4)c(=O)c3ccccc32)c1 -16.5%
Cc1cccc(C(=O)OCc2cc(=O)n3nc(-c4cccs4)sc3n2)c1 -4.92%
CC(=O)c1ccc2c(c1)N(CCCN1CCC(CCO)CC1)c1ccccc1S2 2.6%
CC(C)(C)OC(=O)N1CCC(c2c(C(=O)N3CCCCC3)cnn2-c2ccc(F)cc2F)CC1 -8.13%
Cn1c(Oc2ccccc2)nc2c1c(=O)n(Cc1ccc(Cl)cc1Cl)c(=O)n2C 15.5%
Cc1ccc(-n2ncc(C(=O)NCCCN3CCN(C)CC3)c2C2CCN(C(=O)OC(C)(C)C)CC2)c(C)c1 -20.7%
CCCC(=O)Nc1ccc(NC(=O)c2sc3ccccc3c2Cl)cc1 9.44%
CCc1ccc2nc(N(Cc3cccnc3)C(=O)c3cccs3)sc2c1 -27.5%
NS(=O)(=O)c1cccc2c1c([N+](=O)[O-])cc1nc(O)c(O)nc12 -25.3%
COCCn1c(SCC(=O)c2ccccc2)nc2cc(C(=O)NC3CCCC3)ccc2c1=O 0.748%
CC(=O)c1cccc(NC(=O)c2noc3c2CC(C)CC3)c1 (stereo not drawn) -18.5%
CCOC(=O)CSC1=Nc2ccccc2C2=NC(CCC(=O)NCc3ccccc3)C(=O)N12 (stereo not drawn) 25.1%
COc1ccc(NC(=O)CN(c2cccc(C)c2C)S(=O)(=O)c2ccccc2)cc1OC 12.3%
Cc1cc2c(cc1C)C(c1cccc(OC(C)C)c1)CC(=O)N2 (stereo not drawn) 36%
CCCCN(C)CCCNC(=O)Cn1nc(CC)n2c(cc3sc(C)cc32)c1=O -34.8%
